This is one part of the list.
Tested on: T1, C. trachomatis L2/434/Bu expressing GFP (CTL2-GFP)
T1 construct: L2/434/Bu GFP intracellular growth in HeLa cells
Set-up: species or system HeLa; C. trachomatis total inclusion area by high-content imaging, normalised to DMSO
Details: total inclusion area; 28.5 h, 10 µM; inhibitor
Outline: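 After bulk GFP and resorufin fluorescence reads, cells were fixed, stained with Hoechst and imaged by high-content microscopy. Inclusion area and number (GFP) stood in for chlamydial growth, nuclei count (Hoechst) for host cell viability. MICs were derived as for the bulk readout.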

| Structure (SMILES) | % of control remaining |
| --- | --- |
| O=C(C1CC2C=CC1C21CC1)N1CCN(c2nccs2)CC1 (stereo not shown) [CBK281640] | 107.822 |
| O=C(c1ccco1)N1CCN(C(=O)C(c2ccccc2)c2ccccc2)CC1 [CBK144462] | 89.4292 |
| CC(C)CNC(=S)NNC(=O)CC(C)O (stereo not shown) [CBK266921] | 107.221 |
| Cc1ccccc1-c1ccccc1CC1(C(N)=O)CCN(C(=O)CCc2ccccc2)CC1 [CBK285725] | 101.938 |
| CC(C)N1CC[C@@H]2[C@H]1C(=O)NC[C@H](CCC(=O)NCc1ccccc1)N2C [CBK289027] | 120.336 |
| CCOC(=O)C1CCN(S(=O)(=O)c2ccc(NC(C)=O)c(Cl)c2)CC1 [CBK043748] | 96.479 |
| CN(C)CCNC(=O)c1cccc(-c2cncc(Nc3cccc(Cl)c3)n2)c1 [CBK065229] | 89.7689 |
| COc1ccc(CCNC(=O)CN2CCCCC2C)cc1 (stereo not shown) [CBK304827] | 95.487 |
| CN(C)CCN(Cc1cccs1)Cc1cc(Cl)ccc1O [CBK282847] | 65.086 |
| O=C(Cc1cc(F)cc(F)c1F)Nc1ccc2[nH]ccc2c1 [CBK159686] | 99.9126 |
| NCCC(=O)N(CCc1cc(C(F)(F)F)cc(C(F)(F)F)c1)c1ccc(Oc2ccccc2)cc1 [CBK002998T] | 52.9448 |
| CN(CC(=O)Nc1ccn(Cc2cccnc2)n1)c1ccc(C#N)cn1 [CBK306105] | 62.3359 |
| CCCS(=O)(=O)N1CCN(Cc2cc(Br)ccc2O)CC1 [CBK264165G] | 126.268 |
| COc1ccc(C(=O)CCCN2CC3CCC(NC(=O)Nc4ccc(F)c(F)c4)CC3C2)cc1 (stereo not shown) [CBK083514T] | 65.6545 |
| Cc1ccccc1-n1c(=O)cc(N2CCN(c3ccc(F)cc3)CC2)[nH]c1=O [CBK287508] | 91.9747 |
| CN1CCC(=NNC(=O)CCSc2ccc(Cl)cc2)CC1 [CBK020372] | 77.3994 |
| C[N+]1([O-])CCN(c2nccn(CCOc3cc(F)c(F)cc3F)c2=O)CC1 [CBK081593] | 82.2975 |
| CN(C)c1ccc(-n2ccn(S(=O)(=O)c3ccc4ccccc4c3)c2=O)cc1 [CBK106607] | 130.817 |
| CC(C)c1ccc(/C=C/C(=O)N[C@H]2CC[C@H](O)CC2)cc1 [CBK149644] | 103.964 |
| O=C(NC(Cc1ccccc1)C(O)c1nccs1)C1CC=CCC1 (stereo not shown) [CBK284763] | 76.0391 |
| C=C(C)CN1CCN(C(=O)C(CC)Oc2ccccc2F)CC1 (stereo not shown) [CBK282935] | 105.272 |
| O=C(c1nccs1)C1CCN(C(=O)c2ccccc2F)CC1 [CBK284174] | 64.395 |
| Cc1nc(S(=O)(=O)Cc2nccn2C)n(CC2CCCO2)c1C (stereo not shown) [CBK304012] | 122.082 |
| Cc1ccc2oc3c(c(=O)c2c1)C(c1ccc(OCC(N)=O)cc1)N(Cc1ccc2c(c1)OCO2)C3=O (stereo not shown) [CBK267189] | 111.234 |
| CN(c1ccc(C(=O)Nc2cccc(C(=O)O)c2)cc1)S(=O)(=O)c1ccccc1 [CBK265729] | 116.596 |
| Cc1cc(C)n(-c2ccc3nnc(CCCC(=O)O)n3n2)n1 [CBK307630] | 93.2015 |
| c1ccc2c(c1)CCC[C@H]2Oc1cncc(N2CCNCC2)n1 [CBK172388G] | 67.3061 |

| Structure (SMILES) | % of control remaining |
| --- | --- |
| CC(C)Nc1nccnc1Sc1cccc(O)c1 [CBK093725] | 102.212 |
| Cc1cc(=O)oc2cc(OC(C)C(=O)Nc3sc4c(c3C(N)=O)CCCC4)ccc12 (stereo not shown) [CBK268050] | 95.1562 |
| O=C(c1cc(F)cc(F)c1)N1CCC(c2n[nH]c3ncccc23)CC1 [CBK284909] | 98.5967 |
| Cc1cccn2c(=O)cc(CN3CCc4c(nc(C5CC5)n4C)C3)nc12 [CBK305256] | 24.4101 |
| O=[N+]([O-])c1ccccc1NC1OCC(O)C(O)C1O (stereo not shown) [CBK262032] | 95.154 |
| COC(=O)c1ccc2cccnc2c1O [CBK017876] | 25.5269 |
| CCN(CC)CCN(Cc1ccc2c(c1)OCO2)C(=O)Nc1ccc(C)cc1 [CBK159059] | 73.9301 |
| CCCC(NC(=O)C1C=CCN1S(C)(=O)=O)c1cccs1 (stereo not shown) [CBK282668] | 96.7012 |
| O=C(OCc1ccccc1)N1CCC(C2OCc3ccc(-c4ccc(Cl)c(Cl)c4)cc3O2)CC1 (stereo not shown) [CBK144646] | 86.3484 |
| COc1ccc(CCCCN(C(=O)C(N)Cc2ccccc2)c2cccc3ccccc23)cc1OC (stereo not shown) [CBK001032T] | 71.6183 |
| COc1ccc(S(=O)(=O)N2CCN(C(C(=O)O)c3ccc(C)cc3)CC2)cc1 (stereo not shown) [CBK296753] | 81.9926 |
| FC(F)(F)c1cc(-c2cn3ccnc3c(NC3CCOCC3)n2)cc(C(F)(F)F)c1 [CBK037278] | 84.1892 |
| O=C(Cc1ccc(Cl)c(Cl)c1)N1CCN(C(=O)c2ccco2)CC1 [CBK144454] | 64.8236 |
| Cc1c(Nc2ncnc3sc4c(c23)CCCC4)c(=O)n(-c2ccccc2)n1C [CBK093912] | 76.7846 |
| COc1cc(-c2cncc(NCC(C)(C)CO)n2)cc(OC)c1OC [CBK037854] | 102.855 |
| CC(=O)OC1CCn2c1nc1cc(C(F)(F)F)ccc12 (stereo not shown) [CBK115367] | 97.2922 |
| CCOC(=O)c1ccccc1NC(=O)CCC(=O)O [CBK261631] | 100.102 |
| CC(=O)N1CCN(c2c(-c3ccccc3)nnc3ccccc23)CC1 [CBK066889] | 99.3753 |
| Nc1nnc(SCC(=O)N2CCN(C(c3ccccc3)c3ccccc3)CC2)s1 [CBK266320] | 117.245 |
| c1coc(-c2cc3ncc4c(n3n2)CC2CCC4N2)c1 (stereo not shown) [CBK284381] | 74.4105 |
| O=C(NCCc1ccc(Cl)cc1)C1(Cc2ccc(-c3cccnc3)cc2)CCOCC1 [CBK285589] | 66.241 |
| CC1(C)CCCN(Cc2nnnn2-c2ccc(S(C)(=O)=O)cc2)C1 [CBK306181] | 70.3929 |
| Oc1ccccc1CNC1(Cc2cc(-c3ccc(F)cc3)on2)COC1 [CBK289655] | 88.438 |
| COCCCN(Cc1ccccn1)Cc1c(F)cccc1F [CBK282959] | 99.8381 |
| c1ccc(Nc2nc(-c3ccc(N4CCOCC4)cc3)cn3ccnc23)cc1 [CBK066222] | 68.2914 |
| Cc1ccc(Nc2c([N+](=O)[O-])nn(-c3ccccc3)[n+]2[O-])cc1F [CBK268414] | 99.4273 |
| COc1cccn(CC(=O)N(C)CCc2scnc2C)c1=O [CBK306726] | 36.9414 |

| Structure (SMILES) | % of control remaining |
| --- | --- |
| COC[C@H](C)Nc1ccc(C(=O)N2CCC(N3CCOCC3)CC2)cn1 [CBK306917] | 55.7674 |
| O=C(NC(=O)c1ccc(F)c(Cl)c1)Nc1nnc(C(F)(F)F)s1 [CBK076830] | 87.0686 |
| CCc1nc2ccc(C(=O)NCc3cccs3)cn2c1N(C)CC [CBK145492] | 63.4988 |
| CN(C)CCSc1cc(N2CCCC2)ncn1 [CBK105295] | 101.197 |
| Nc1nc2c(nc(SCCc3ccccc3)n2C2OC(CO)C(O)C2O)c(=O)[nH]1 (stereo not shown) [CBK268686] | 83.502 |
| COCC(=O)N1CCN2C(=O)c3cc(-c4ccccc4F)ccc3NC(=O)[C@H]2C1 [CBK289587] | 110.474 |
| O=C(O)c1cccn1-c1cc(Cl)cc(Cl)c1 [CBK286932] | 89.2415 |
| COC(=O)c1cc(C)nc2sc(C)c(N)c12 [CBK115343] | 92.7288 |
| CC(C)(C)c1ccc(-n2cc(-c3ccc(Cl)cc3)nn2)cc1 [CBK113031] | 78.9701 |
| CC(C)(O)C#Cc1ccc(C(=O)NCCC(=O)O)s1 [CBK267704] | 94.8353 |
| CCCN1CCC(N2CCN(CCO)CC2)CC1 [CBK261920] | 98.5788 |
| CCCn1cc(NC(=O)C2(c3ccccc3)CCC2)ccc1=O [CBK306237] | 105.967 |
| COc1ccccc1NC(=O)c1sc2nc(N3CCOCC3)c3c(c2c1N)CCCC3 [CBK269247] | 73.2833 |
| COC(=O)CNC(=O)c1ccc(S(=O)(=O)N2CCOCC2)cc1 [CBK264873] | 96.9733 |
| O=C1NC2(CCSC2)C(=O)N1Cc1noc(-c2cccs2)n1 (stereo not shown) [CBK306225] | 38.8692 |
| Cc1ccc2c(c1)oc(=O)n2CCNC(=O)CC1c2ccccc2Oc2ccccc21 [CBK286194] | 89.022 |
| CN1CCN(c2ccc3ccn(S(=O)(=O)c4ccccc4Br)c3n2)CC1 [CBK200019C] | 82.9935 |
| NC1CC(c2cc(NCc3cn4ccccc4n3)ncn2)C1 (stereo not shown) [CBK306631] | 89.4121 |
| O=C(Cn1cnc2c(F)cc(Br)cc2c1=O)N1CCOC2CCCCC21 (stereo not shown) [CBK305229] | 43.481 |
| CC(C)C(=O)N1CC2(CCN(CCc3c[nH]c4ccccc34)CC2)c2ccccc21 [CBK126725] | 92.6802 |
| COc1ccc(C(NC(=O)c2ccc(C(C)N3CCOCC3)o2)c2ccccc2)cc1 (stereo not shown) [CBK285748] | 71.8551 |
| CN(C(=O)CSc1nc2ccccc2nc1Cc1ccc(Cl)cc1)C1CCCCC1 [CBK294411] | 96.6413 |
| CC1(C)CC(=O)C2=C(C1)Nc1nc(SCc3ccc([N+](=O)[O-])cc3)[nH]c(=O)c1C2c1cccnc1 (stereo not shown) [CBK266096] | 77.8673 |
| O=C1CCC(=O)N1CCOc1nccnc1OC1CCN(CCc2c[nH]c3ccccc23)CC1 [CBK084355] | 91.7633 |
| O=C(O)c1ccc(S(=O)(=O)c2ccc3c(c2)C(=O)N(NC(=O)c2ccc(O)cc2)C3=O)cc1 [CBK264229] | 110.231 |

From publication PMC12040169 (PLOS Biology, 2025)
